Results taken from the supplement of paper PMC11417369.
The other results are listed elsewhere or left out.

Tested on: PfAP2-HC AP2 domain (GST-tagged)
Experiment: gcPBM binding intensity (ln(normalized median fluorescence intensity)); higher = stronger DNA binding
Method in brief: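 An Agilent 4 × 180k array carrying primer-extended double-stranded 36-bp intergenic genomic probes and negative controls received GST-tagged P. falciparum DNA-binding domains expressed in E. coli, about 25 μg on average, for 1 h. The binding buffer contained 1× PBS, 1% milk, 0.2 mg/ml BSA, 0.5% salmon testes DNA and 0.03% Triton X-100. Binding intensity is the top Masliner-normalised natural-log median intensity across replicate spots of either probe orientation, read after Alexa488 anti-GST antibody staining and a 488 nm scan.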

| Sequence | gcPBM binding intensity (ln) |
| --- | --- |
| GAATGTATATTCATGTATTTATTATTATTATTATTA [XGTACX_negctrl_site156] | 9.31 |
| TCGGGAGGGGGGAAGCGTACATATATAAAATTATTA [XGTACX_site4683] | 10.1 |
| TATAACAAGTTATAAAGTACAAATGTTGAATTTTAT [XGTACX_site4673] | 9.65 |
| TAAAAATTAATATAAACACACAAAAATTAATAAATA [CACACA_site381] | 9.94 |
| TATAGATACAGATACACACACACACCGACATATATA [CACACA_site5832] | 10.7 |
| ATATGCCTAATAAAATGTACGTTTGTTTTATTTATT [XGTACX_site3833] | 9.77 |
| ATATATATATTTTGGTAGCACCTCCTTTTTTTTTTT | 9.68 |
| ATATGGCTAAAAGTTGCACACACACTAATAAAAAAA [CACACA_site9082] | 10.1 |
| TATGTATTTATATTAACACACAAAAAAAAAAAAAAA [CACACA_site5070] | 9.54 |
| ATTATTTTACTAAAAGATATTCCTTTTTTTTGTACT [CACACA_negctrl_site998] | 9.62 |
| ATATGCATTTTTATACGTACATATTTCTTTTCGTTA [XGTACX_site1497] | 9.92 |
| TGTTTTATTTAGAAGGTGCACATTAATATTAAATAA | 9.53 |
| ACAAAAGGGGAATACACACACATATATAAATAAATA [CACACA_site7111] | 10.5 |
| CATATTTTTATGAGATGTACAATAAGAAATATGTAA [XGTACX_site2389] | 9.57 |
| AACAGGTCATAATTTACACACTATATATCTTATTAT [CACACA_site6461] | 10.1 |
| TTCATAAGAAGGAACTGTACATATTTTTCATTTTTT [XGTACX_site6770] | 9.61 |
| TGTATACCTTAATATACACACATACAGATATATATA [CACACA_site4860] | 9.71 |
| CGATTTTTTTTTTATTGTACTTGCTCGCATGCAATA [XGTACX_site4727] | 9.51 |
| TTATATGTATATATATGTATATATATATATATATAG [TGCATGCA_negctrl_site461] | 9.61 |
| TACAATCTTTCATTATGTACTTAACATTTTTTCTGT [XGTACX_site8752] | 9.89 |
| CATACAGATGGACACACACACACACCCACAGACAAA [CACACA_site4431] | 10.5 |
| TTTTTTTTTTGATGCACACACCTGAACGAGTTAATA [CACACA_site4329] | 9.99 |

| Sequence | gcPBM binding intensity (ln) |
| --- | --- |
| TTATCCTTGTAACAATGTACACATTATTTAATACTT [XGTACX_site1830] | 9.78 |
| TCGTGAATGATTTAAGTACACACCGGTATTTATTCA [CACACA_site1564] | 9.77 |
| GCATAAACGGATAATTAATTATATTATATTATATCA [CACACA_negctrl_site1519] | 9.62 |
| ATTTATTTATATATATTATTTGTTTTAATTTACTTA [XGTACX_negctrl_site246] | 9.67 |
| TATTGTTGTCTTTACACATGCAACAAAAGAAGAAAA [TGCATGCA_site911] | 9.63 |
| TATTCTAATATTTATACACACATAACTTTGATAAAT [CACACA_site6418] | 9.66 |
| TATATATAGCATATTTCACACACACCGAATGAATAT [CACACA_site9182] | 10.3 |
| ATTAATTATTGTAATTGTACATTTTATATATATCCA [XGTACX_site2105] | 9.58 |
| TTTCTTGGGAGACATGCATGTACCAGAACAAAATAA [TGCATGCA_site272] | 9.54 |
| CACCCATAGAAACACACACACGCATAAAAAAAAAAA [CACACA_site1513] | 10.7 |
| TAAAAACAAAAATGCACACATAATAAGCATATGTAT [CACACA_site3469] | 9.92 |
| TTTATTTTTATGGTCACACATATTTTTAAAACTATA [CACACA_site4372] | 9.77 |
| TACAAAATAGTTTACACACACATATATATACATATA [CACACA_site2615] | 9.95 |
| TTTTTTTTTTTATATACTGGAAATATATTTAATTTA [GTGCAC_negctrl_site250] | 9.46 |
| CTTTCCTATTTGACACGTACGAAATTTTACATAAAA [XGTACX_site6689] | 9.42 |
| AAATATATATACACATATATATATATATATATATAT [CACACA_negctrl_site1742] | 9.72 |
| TATGAAATATCGTGCACACACGAATAATATAAGAAT [CACACA_site4842] | 9.93 |
| AAAATAAAAAATATAACACACAATAAATATTTATAT [CACACA_site6986] | 10.1 |
| ACATGAAATGTTTAAAGTACATATATAAATTTTTTT [XGTACX_site4519] | 9.54 |
| ATATATAGATAATCAAGTACATAACAAGATATAAGA [XGTACX_site2186] | 9.79 |
| TACTGATCTTTCTAGGTGCGCTGCTACCATTATCGT [GTGCAC_site9538] | 9.65 |
| AAATGTGAAGTGAATACACACCTAATAAATATAACA [CACACA_site5727] | 9.77 |

| Sequence | gcPBM binding intensity (ln) |
| --- | --- |
| TATATTTAATTATTATGTACTTATAATTTTTGAAAG [XGTACX_site8548] | 9.24 |
| TATGTATTTATCCACTTACATTTTTACTTTTCCATT [CACACA_negctrl_site1141] | 9.76 |
| TATATATATAATATTACACACATATATTTATATTTT [CACACA_site3460] | 9.8 |
| ATTTATACATGCTAATGTACTTATTTCACCTATATC [XGTACX_site3120] | 9.87 |
| TATGGTATATACAACACACACACATATGTATAAATA [CACACA_site6562] | 10.5 |
| CAAGTATTAATTATGTGTACATATATATATATATAT [XGTACX_site5311] | 9.97 |
| TTAATATTGTATTTCACACATAATTTAATATACTCA [CACACA_site5678] | 9.68 |
| TATAATGAGGATAATAGTACATATGAATACAAAAAA [XGTACX_site3665] | 9.81 |
| TACACAAGCAGACACACACACATATAGATTTATATA [CACACA_site6715] | 10.3 |
| GCCATAAAAATATATACACACATAAAAAAAAATTAT [CACACA_site1176] | 9.89 |
| TCTTAAGGAAAAGAGTGTACAGAAATTTTTATTAAC [XGTACX_site6139] | 9.45 |
| ATCCGAGTGTGAAATACACACATGATAATGTGAATG [CACACA_site919] | 9.99 |
| AATTATATTACAAACTGTACATATATAATTTGTCCA [XGTACX_site6009] | 9.59 |
| TTAAATAAGTAATTATGTACATATAATATTCTTTAT [XGTACX_site5280] | 9.61 |
| TATAGGAATATATGGTGTACCTATAAATCTGACATA [XGTACX_site8111] | 9.6 |
| AAAAATAAAAATTGCACACTAAAAAATTACGCACGA [CACACA_site3418] | 9.8 |
| ATTTATATATTTATACGTACTTATATATTGTTACAT [XGTACX_site6254] | 10.2 |
| TAGAAAATATAAAAATGTACGTAAATAAAATGTGCA [XGTACX_site3459] | 9.87 |
| TTATAATAATAGAACTTTATGTAGAAAAAAGGAAAA [XGTACX_negctrl_site116] | 9.56 |
| ACACATACTAAAATGTTGTGAAATATGATAATGTGA [CACACA_negctrl_site851] | 9.88 |
| TATATATATATATATAGTACATATTAATTAATTTAT [XGTACX_site8198] | 9.59 |
| CACAGACACGGACACACACACACACCCACATATATA [CACACA_site4355] | 11.5 |

| Sequence | gcPBM binding intensity (ln) |
| --- | --- |
| ATATATTTTAAATATATTATTATTGCATTGTGAAAA [TGCATGCA_negctrl_site106] | 9.34 |
| TCTTAAAAAATAGGGACACGTAAATATAATATATAA [CACACA_negctrl_site554] | 9.59 |
| AAAAAAAAAAAAAAAACACACATATATATATATATA [CACACA_site2436] | 10.4 |
| TTTAAAACCTTACATACACACAAATATGTAAATATA [CACACA_site6464] | 9.67 |
| TTCATATAACCTTATAGTACATAATTAAAAATATAA [XGTACX_site6328] | 9.32 |
| CACGCATATATACATACATGCATATATACATCCATG [TGCATGCA_site667] | 9.7 |
| AAAAAAAAAAAAAAAACACACATATAGGTATAAATA [CACACA_site7528] | 9.72 |
| AAAAAAAAAAAATAGACACACATATTATATATATAT [CACACA_site1419] | 10.2 |
| TATTATTCTATACATTGTACATATTTTATAGTATGT [XGTACX_site73] | 9.79 |
| TTTTCCTTATATTATGCATGCAGGGTTTGACATTAT [TGCATGCA_site826] | 9.8 |
| ATGTGTTGGGAAAAGGCATGCACTTTTTTTTTTTTT [TGCATGCA_site707] | 9.62 |
| TGATAACCTCACAAATGTACGTACGGGGCTAGCATT [XGTACX_site4157] | 9.82 |
| ATATCTATAATAAATACACACATTTATATAGATAAA [CACACA_site7518] | 9.62 |
| AACAGCATTATTTCTTATTTTTTTTTTGATATATTT [GTGCAC_negctrl_site114] | 9.63 |
| AAACTTGACAGACACACACACACATATATAAAAAAA [CACACA_site757] | 10.4 |
| GTTATATTATTCATACGTACCTATATTTCTATTAAC [XGTACX_site3447] | 9.83 |
| TGTGTGTGCTTATTTTGTACATATTAGGTAAATATT [XGTACX_site6329] | 9.99 |
| TTTATGGAATAATCACGTACACACAAGAAAAAAAAA [XGTACX_site985] | 10.2 |
| TTTTTATCTAATCTAATATTATATTATACATATAAT [XGTACX_negctrl_site275] | 9.61 |
| AACTCATAAAATAATGGTACACAAAAAAAATAAATA [XGTACX_site7648] | 10.1 |
| TTTTTTTTTTTCTTTTGTACGTATAAAATTATATAA [XGTACX_site2453] | 9.58 |
| CAAGGAACCAGACACACACACATAAATGTATTTATA [CACACA_site6491] | 10.6 |
